Measurements taken from PubChem BioAssay AID624418 (National Center for Advancing Translational Sciences (NCATS), 2012).
Screen size: about 410,000 compounds; about 530 (0.13%) were called active. Inconclusive means that the source gave no clear call. Such entries were picked first, then a sample of the others. Calls follow the shape of the dose curve; as a rule, active = well fitted inhibition curve with a large enough effect; inconclusive = small, poorly fitted or top-dose-only effect, or another doubt; inactive = no such curve, though single readings can be large or run the other way. A potency beside an inconclusive call is a rough fit, not a confirmed value.

Assay: qHTS of GLP-1 Receptor Inverse Agonists: Cytotox Screen
Conditions: HEK293 cAMP-luciferase reporter cells, luminescence, 24 h; activity change, negative = inhibition: at 38.3 µM (top of the series) unless noted
How it was run: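 To flag toxic compounds, the library was rerun on cells for 24 hr at 37 deg C and 5% CO2. Viability-linked luminescence was captured 12 min after adding luciferase detection reagent.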
% is scaled to controls: 0 for no effect and ±100 for the full control effect; potency is read from the fitted curve at half-maximal effect.

| Compound | Potency | activity change, negative = inhibition |
| --- | --- | --- |
| Oc1ccc(NCc2ccccc2OCc2ccccc2F)cc1 | inconclusive: 11.2 µM [inhibitor, single point] |  |
| c1ccc(-c2nnc3n2-c2ccccc2SC3)cc1 | inconclusive: 12.6 µM [inhibitor, single point] |  |
| CCOc1ccc(CN2CCC(Cc3ccccc3)CC2)cc1 |  | inactive: -4.4% |
| CCOC(=O)C1(C)/C(=N/Nc2ccc(S(N)(=O)=O)cc2)C(=O)C(=O)N1c1ccccc1 (stereo not given) | inconclusive: 10 µM [inhibitor, single point] |  |
| CCOC(=O)c1cccc(NC(=O)CC2C(=O)N(c3ccc(OC)cc3)C(=O)N2C2CCCC2)c1 (stereo not given) |  | inactive: -6.73% |
| CCc1ccc(N2C=C(C(=O)OC)C(c3cccc4ccccc34)C(C#N)=C2N)cc1 (stereo not given) |  | inactive: -12.8% |
| Cc1ccccc1OCC(O)CN1CCN(CC(O)COc2ccccc2C)CC1 (stereo not given) |  | inactive: -6.14% |
| CCOc1ccc(-n2nc(CO)c(C(=O)NCCCc3ccccc3)n2)cc1 |  | inactive: 1.29% |
| Cc1cc(C)c(C)c(OC(=O)c2sc(Cl)nc2C)c1 | inconclusive: 28.2 µM [inhibitor, single point] |  |
| Cc1ccc(NC(=O)c2cc([N+](=O)[O-])ccc2NCc2cccnc2)cc1Cl | inconclusive: 12.6 µM [inhibitor, single point] |  |
| O=C(CN1c2ccccc2Sc2ccccc21)NNC(=O)Nc1cccc(Cl)c1 | inconclusive: 11.2 µM [inhibitor, single point] |  |
| O=C(CN1c2ccccc2Sc2ccccc21)N/N=C/c1ccc(Cl)cc1Cl |  | inactive: 1.65% |
| O=C(NC(c1ccc(Cl)cc1)c1ccccn1)C1CCN(CCOc2ccc(Cl)cc2Cl)CC1 (stereo not given) | inconclusive: 28.2 µM [inhibitor, single point] |  |
| Clc1ccc(CSc2nncn2-c2ccccn2)cc1 | inconclusive: 2.24 µM [inhibitor, full curve] |  |
| CCOC(=O)N1CCN(Cc2nc3cc(NC(=O)c4ccc(OC)cc4)ccc3n2C(C)C)CC1 | inconclusive: 1.26 µM [inhibitor, partial curve, poor fit] |  |
| COc1ccc(C)cc1Nc1n[n+](-c2ccccc2)c(-c2c(Cl)cccc2Cl)s1 | inconclusive: 14.1 µM [inhibitor, single point] |  |
| COc1ccc(OCC(=O)Nc2nnc3n2CCS3)cc1 |  | inactive: -1.53% |
| CCCNC(=O)Cn1sc2nc(C)cc(C)c2c1=O | inconclusive: 28.2 µM [inhibitor, single point] |  |
| Cc1ccccc1Cn1c(Cc2ccccc2)nc2ccccc21 | inconclusive: 22.4 µM [inhibitor, single point] |  |
| COc1ccc(C2CC(=O)N3CN(c4ccccc4F)CSC3=C2C#N)cc1OC (stereo not given) |  | inactive: 4.22% |
| CCCS(=O)(=O)N1CC(=O)N(c2cc(C)ccc2C)C(C)(C(=O)NC2CCCCCC2)C1 (stereo not given) |  | inactive: 3.48% |
| O=C(NC(=S)N1CCN(c2ccc(Cl)cc2[N+](=O)[O-])CC1)c1cccs1 | active: 5.62 µM |  |
| NNC(=O)c1cncn1-c1ccc(F)cc1 | inconclusive: 28.2 µM [inhibitor, single point] |  |
| CC1(C)C2CC=C(/C=N/NC(=S)NCCc3ccccc3)C1C2 (stereo not given) | inconclusive: 7.08 µM [inhibitor, partial curve, poor fit] |  |

| Compound | Potency | activity change, negative = inhibition |
| --- | --- | --- |
| Cc1c(Cl)cccc1NC(=S)NCCc1ccc(F)cc1 | inconclusive: 3.16 µM [inhibitor, single point] |  |
| O=C(Nc1nc2ccccc2[nH]1)c1ccc(Cl)c(S(=O)(=O)N2CCCC2)c1 | inconclusive: 14.1 µM [inhibitor, single point] |  |
| COc1ccc2c(c1)CC/C(=C/c1ccncc1)C2=O | inconclusive: 11.2 µM [inhibitor, single point] |  |
| CCOC(=O)C(NC(=O)c1cccc(Cl)c1)(OCc1ccc(F)cc1)C(F)(F)F (stereo not given) | inconclusive: 31.6 µM [inhibitor, single point] |  |
| CC1CCCCN1CCNC(=O)c1ccc2c(c1)N(Cc1cccc(Cl)c1)C(=O)c1ccccc1S2(=O)=O (stereo not given) | inconclusive: 10 µM [inhibitor, partial curve, poor fit] |  |
| Cc1ccccc1NC(=S)N/N=C/c1ccc(O)cc1O | inconclusive: 3.16 µM [inhibitor, full curve, poor fit] |  |
| COc1ccc(/C=N/Nc2nc(-c3cccnc3)nc3ccccc23)cc1OC | inconclusive: 8.91 µM [inhibitor, partial curve] |  |
| CCNc1ccc(C(=O)OCC(=O)NCCN2C(=O)CSC2=O)cc1[N+](=O)[O-] | inconclusive: 31.6 µM [inhibitor, single point] |  |
| CCc1ccc(CNCc2c(C(=O)O)n(Cc3ccc(C)cc3)c3cc(C)ccc23)cc1 | inconclusive: 28.2 µM [inhibitor, single point] |  |
| COc1ccccc1N/C=C/C(=C(C#N)C#N)N(C)C | inconclusive: 20 µM [inhibitor, single point] |  |
| CCn1c(Cc2ccccc2)nnc1SCC(=O)Nc1nc(C)c(C)s1 |  | inactive: -2.09% |
| CCc1[nH]nc2c1C1(C(=O)N(Cc3ccccc3)c3ccccc31)C(C#N)=C(N)O2 (stereo not given) | inconclusive: 22.4 µM [inhibitor, single point] |  |
| C[C@@H]1CN([C@H](C)CO)C(=O)CCCn2cc(nn2)CO[C@H]1CN(C)S(=O)(=O)c1ccc(-c2ccccc2)cc1 |  | inactive: -26.2% |
| Clc1ccc(CN2C3=NCCCN3c3ccccc32)cc1Cl |  | inactive: -23.8% |
| CCn1ccnc1CN(C)Cc1cn(-c2ccc(C)cc2)nc1-c1cccc(C)c1 | inconclusive: 31.6 µM [inhibitor, single point] |  |
| O=C(Nc1cccc(CNCCc2c[nH]c3ccccc23)c1)c1ccccc1Cl | inconclusive: 22.4 µM [inhibitor, single point] |  |
| Cc1cccc(OCCCCCn2ccnc2)c1 |  | inactive: -4.49% |
| COC(=O)CSC1=C(C#N)C(c2ccccc2)CC(=O)N1 (stereo not given) | inconclusive: 14.1 µM [inhibitor, single point] |  |
| CCN=c1sc(C(=O)NCCc2ccccc2)cc(=O)n1CC | inconclusive: 12.6 µM [inhibitor, single point] |  |
| Cc1ccc2cc3c(NS(=O)(=O)c4cccc5nonc45)nn(CC(C)C)c3nc2c1 |  | inactive: -24.3% |
| CCOC(=O)C1CCN(C(=O)Nc2ccc(NC(=O)C3CCN(C(=O)OCC)CC3)cc2)CC1 |  | inactive: 6.48% |
| CCOc1ccccc1NC(=O)N1CCC(NC(=O)c2cccc(C)c2)CC1 | inconclusive: 3.98 µM [inhibitor, partial curve, poor fit] |  |
| Cc1nc(C(=O)NNC(=O)c2ccc(Cl)cc2)cs1 | inconclusive: 0.447 µM [inhibitor, full curve, poor fit] |  |
| O=C(/C(=C/O)N=Nc1ccccc1)c1cccs1 | inconclusive: 31.6 µM [inhibitor, single point] |  |

| Compound | Potency | activity change, negative = inhibition |
| --- | --- | --- |
| COc1ccc(-n2c(-c3ccc(Cl)cc3Cl)n[nH]c2=S)c(OC)c1 |  | inactive: -10.2% |
| CN1CCCC(CN2c3ccccc3Sc3ccccc32)C1 (stereo not given) |  | inactive: -19.6% |
| CN1CCN(c2ccc(C(F)(F)F)cc2NC(=O)Nc2ccccc2)CC1 | inconclusive: 10 µM [inhibitor, single point] |  |
| Cc1ccc(-c2nc3ccccc3s2)cc1NC(=O)c1ccc2c(c1)OCO2 | inconclusive: 10 µM [inhibitor, partial curve] |  |
| CCOC(=O)C1(CC2CC2)CCN(C(=O)c2cc(C3CC3)nc3ccccc23)CC1 |  | inactive: 1.77% |
| Cc1cccc(Cc2cnc(N3C(=N)SC(C)C3=O)s2)c1 (stereo not given) | inconclusive: 22.4 µM [inhibitor, single point] |  |
| CCn1c2ccccc2c2cc(/C=N/NC(=O)c3ccccc3C)ccc21 | inconclusive: 3.98 µM [inhibitor, full curve] |  |
| O=C(CCCN1C(=O)S/C(=C\c2ccccc2)C1=O)NNC(=O)c1ccccc1O |  | inactive: 0.0044% |
| Cc1cc(NC(=O)CCC(=O)N(c2cccnc2)C(C(=O)NC2CCCC2)c2ccccc2)no1 (stereo not given) |  | inactive: -2.45% |
| COc1ccc(CC(N)c2csc(NC(=O)Nc3cccc(C(F)(F)F)c3)n2)cc1 (stereo not given) | inconclusive: 28.2 µM [inhibitor, single point] |  |
| O=C(O)c1ccc(Nc2cc(Cl)c3nonc3c2[N+](=O)[O-])cc1 | inconclusive: 22.4 µM [inhibitor, single point] |  |
| CCN(CC)c1cc(NCCO)c([N+](=O)[O-])c2nonc12 | inconclusive: 12.6 µM [inhibitor, partial curve, poor fit] |  |
| Cc1ccc(Cl)c(NC(=O)COC(=O)c2ccccc2C(=O)c2ccc(Cl)c([N+](=O)[O-])c2)c1Cl | inconclusive: 28.2 µM [inhibitor, single point] |  |
| O=C1c2ccccc2C(=O)N1S(=O)(=O)c1ccccc1 | inconclusive: 28.2 µM [inhibitor, single point] |  |
| COc1cc([N+](=O)[O-])c2ncsc2c1 |  | inactive: 0.102% |
| NC(=S)N=Nc1c(O)[nH]c2c(Br)cc(Br)cc12 | inconclusive: 2.51 µM [inhibitor, full curve] |  |
| Cc1ccc(Nc2cc(C)nn2-c2nc(C)cc(C)n2)cc1 | inconclusive: 0.501 µM [inhibitor, full curve, poor fit] |  |
| O=C(/C=C/c1ccc(OCCCF)cc1)NCc1cccc(Cl)c1 |  | inactive: -5.51% |
| CN(C)CCCN(C(=O)COc1ccc(Cl)cc1)c1nc2ccc(F)cc2s1 | inconclusive: 28.2 µM [inhibitor, single point] |  |
| COc1ccc(N=c2cc(-c3ccc(O)cc3)oc3ccccc23)cc1 | inconclusive: 12.6 µM [inhibitor, single point] |  |
| Cc1ccc(C)c(N2CCN(C(c3ccc(N(C)C)cc3)c3nnnn3C(C)(C)C)CC2)c1 (stereo not given) |  | inactive: 0.223% |
| O=C(O)c1ccc(/C=N/Nc2cccc(C(F)(F)F)c2)cc1 | inconclusive: 28.2 µM [inhibitor, partial curve, poor fit] |  |
